These results are taken from article PMC4336329 (PLoS ONE, 2015).

In all, about 310,000 compounds went through this assay and about 2,200 (0.71%) showed an effect of 50% or more. Effects have a minus sign here. Some of the results follow.

The experiment deals with human ether-à-go-go-related gene (hERG) potassium channel (human, UniProt Q12809). Briefly: primary screen, population patch clamp on CHO cells stably expressing hERG.
Sequence of human ether-à-go-go-related gene (hERG) potassium channel (Q12809 whole entry, looked up): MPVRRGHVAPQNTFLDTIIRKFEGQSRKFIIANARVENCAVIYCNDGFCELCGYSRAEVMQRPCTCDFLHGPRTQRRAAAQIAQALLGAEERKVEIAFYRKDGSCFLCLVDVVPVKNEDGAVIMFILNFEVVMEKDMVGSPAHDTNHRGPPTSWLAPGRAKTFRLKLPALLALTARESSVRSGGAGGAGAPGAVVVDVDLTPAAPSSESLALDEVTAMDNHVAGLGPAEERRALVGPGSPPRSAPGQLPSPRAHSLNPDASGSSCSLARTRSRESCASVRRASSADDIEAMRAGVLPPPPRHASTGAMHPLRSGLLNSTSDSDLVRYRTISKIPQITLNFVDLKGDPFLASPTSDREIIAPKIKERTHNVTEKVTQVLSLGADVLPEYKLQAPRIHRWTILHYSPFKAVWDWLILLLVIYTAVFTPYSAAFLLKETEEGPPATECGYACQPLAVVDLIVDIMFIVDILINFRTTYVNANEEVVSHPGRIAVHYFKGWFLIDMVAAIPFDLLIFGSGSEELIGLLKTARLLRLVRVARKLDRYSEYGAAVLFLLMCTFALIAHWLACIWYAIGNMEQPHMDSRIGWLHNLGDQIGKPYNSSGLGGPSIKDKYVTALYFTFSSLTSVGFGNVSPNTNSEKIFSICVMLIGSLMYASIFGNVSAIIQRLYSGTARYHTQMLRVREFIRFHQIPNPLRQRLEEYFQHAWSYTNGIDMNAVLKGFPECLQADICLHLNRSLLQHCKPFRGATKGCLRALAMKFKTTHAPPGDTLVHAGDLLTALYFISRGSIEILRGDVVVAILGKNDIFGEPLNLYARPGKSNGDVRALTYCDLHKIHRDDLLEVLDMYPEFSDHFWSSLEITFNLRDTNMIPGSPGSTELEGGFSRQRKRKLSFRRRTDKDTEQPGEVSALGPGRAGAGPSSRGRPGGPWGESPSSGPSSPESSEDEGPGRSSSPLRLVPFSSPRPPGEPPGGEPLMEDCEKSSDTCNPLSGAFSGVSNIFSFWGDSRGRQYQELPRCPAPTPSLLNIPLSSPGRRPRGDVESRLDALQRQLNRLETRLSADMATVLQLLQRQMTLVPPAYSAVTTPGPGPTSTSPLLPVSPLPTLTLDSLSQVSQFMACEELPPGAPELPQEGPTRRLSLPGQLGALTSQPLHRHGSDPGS
Turning to `O=C(CCCC(=O)c1ccccc1)NCc1ccccc1`, the “hERG current change (%, negative = inhibition) at 1uM” value is recorded as 8.58%.
The value for `Nc1ccccc1N1CCN(C(=O)c2ccccc2)CC1` was 11.7%; that for `Cc1ccnc2nc(C(=O)Nc3nc(-c4ccccn4)cs3)nn12` was 6.39%.
The value for `O=C1CC(c2ccco2)Cc2nc(N3CCN(Cc4ccc5c(c4)OCO5)CC3)ncc21` (centres unmarked) was -0.693%; that for `O=C(Cn1cc([N+](=O)[O-])cn1)Nc1ccn(Cc2c(F)c(F)cc(F)c2F)n1` was -8.28%.
On to `COc1ccc(NC(=S)Nc2ccc(N(C)C(C)=O)cc2)cc1`, for which the “hERG current change (%, negative = inhibition) at 1uM” value worked out at 4.91%.
As to `COc1cc(C(=O)Nn2c(C)nc3ccccc3c2=O)cc(OC)c1OC`, the “hERG current change (%, negative = inhibition) at 1uM” value turned out to be 15.5%.
The value for `Cc1ccc(C)n1-n1cnc2scc(-c3cccs3)c2c1=O` was 3.04%.
Take `Cc1cc(C)c(NC(=O)/C=C\C(=O)O)c([N+](=O)[O-])c1`: the “hERG current change (%, negative = inhibition) at 1uM” value came to 7.13%.
As for `Cc1c(C(=O)OCC(=O)NCCN2C(=O)CSC2=O)oc2c1ccc1ccccc12`, the “hERG current change (%, negative = inhibition) at 1uM” value is 5.9%.
The value for `Cc1ccccc1OCC(O)Cn1c(NCCN(C)C)nc2c1c(=O)n(C)c(=O)n2C` (centres unmarked) was -0.21%; that for `CN(Cc1ccccc1)C(=O)CCS(=O)(=O)c1ccc2c(c1)oc(=O)n2C` was 9.53%.
`COc1ccc(OCCNC(=O)CSc2ccc(C(F)(F)F)cc2[N+](=O)[O-])cc1`: the “hERG current change (%, negative = inhibition) at 1uM” value is -11.4%.
The value for `COc1cccc(C2C(C(=O)c3cc4ccccc4o3)=C(O)C(=O)N2CCN(C)C)c1OC` (centres unmarked) was 7.5%; that for `COc1ccc(NC(=O)C2CCCN(S(=O)(=O)c3ccc4c(c3)CCCN4C(C)=O)C2)cc1` (centres unmarked) was 14.2%; that for `CCNc1nc(NCC)nc(N/N=C/c2ccc(OC)cc2)n1` was 12.1%.
`COCCCNC(=O)CNC(=O)c1nn(-c2ccc(OC)cc2)c(=O)c2ccccc12`: the “hERG current change (%, negative = inhibition) at 1uM” value is given as 11.1%.
For the compound `COc1ccc(OC)c(N(CC(=O)N2CCN(Cc3ccccc3)CC2)S(C)(=O)=O)c1`, the “hERG current change (%, negative = inhibition) at 1uM” value is listed as 0.475%.
`CCCNC(=O)NC(=O)CSc1ccc2c(c1)OCCO2`: the “hERG current change (%, negative = inhibition) at 1uM” value was 14.5%.
The value for `O=C1c2ccc(Oc3ccc4c(c3)C(=O)N(CCCO)C4=O)cc2C(=O)N1CCCO` was 2%.
Take `CC1CCN(S(=O)(=O)c2cccc(C(=O)Nc3nncs3)c2)CC1`: the “hERG current change (%, negative = inhibition) at 1uM” value is on record as -3.64%.
With `O=C(CNC(=O)c1ccc2ccccc2c1)NCc1ccc(F)cc1`, the “hERG current change (%, negative = inhibition) at 1uM” value is reported as 14.7%.
Consider `COc1ccccc1CNCc1ccc(OC)c(OC)c1OC.O=C(O)C(=O)O`, for which the “hERG current change (%, negative = inhibition) at 1uM” value came to 6.76%.
On to `COc1ccc(Nc2ncnc3sc(-c4ccccc4)cc23)cc1`, for which the “hERG current change (%, negative = inhibition) at 1uM” value is given as -9.06%.
The value for `O=C(CCn1c(=O)oc2ccccc21)N1CCN(C(c2ccccc2)c2ccccc2)CC1` was 8.6%; that for `O=C(O)CSc1c2c(nc3cc(C(=O)Nc4ccc(F)c(Cl)c4)ccc13)CCCC2` was -0.861%.
The value for `COc1cccc(NC(=O)CSc2nnc(-c3cccc(OC(C)C)c3)n2N)c1` was 19.4%; that for `Cc1cc(Cl)c2oc(C(=O)N(C)Cc3cc(C)[nH]n3)c(C)c2c1` was 15.9%; that for `COc1cc(/C=N/NS(=O)(=O)c2ccccc2)c(OC)c(OC)c1` was 12.4%.
The value for `CN1C(=O)NC(c2ccccc2)C2=C1CN(CCc1ccccc1)C2=O` (centres unmarked) was 7.43%.
In the case of `Clc1ccccc1Cc1noc(CN2CCN(c3cnccn3)CC2)n1`, the “hERG current change (%, negative = inhibition) at 1uM” value is given as 12.8%.
The value for `CCc1nnc(NC(=O)c2cc(-c3ccc(C)o3)nc3ccccc23)s1` was 4.02%.
`C/C(=N\Nc1ccc(C#N)cc1[N+](=O)[O-])c1ccc(O)cc1`: the “hERG current change (%, negative = inhibition) at 1uM” value is 7.9%.
On to `Cc1ccc(OCc2nn3c(-c4ccco4)nnc3s2)cc1`, for which the “hERG current change (%, negative = inhibition) at 1uM” value was determined as 10.6%.
`C[C@H](NC(=O)c1ccccc1Cl)C(=O)NCc1cccs1`: the “hERG current change (%, negative = inhibition) at 1uM” value came out at 22.4%.
The value for `COc1ccc(OC)c(NC(=O)c2cc(OC(C)=O)cc(C(=O)Nc3cc(OC)ccc3OC)c2)c1` was 9.21%; that for `C=CCOc1ccc2c(c1)c(=O)cc(C(=O)O)n2CC` was 12.3%; that for `CCCCCCOc1ccc(C(=O)O)cc1` was 11.9%.
The value for `Cc1ccc(NC(=O)CSc2nnc(NC(=O)C3CC3)s2)cc1C` was 13.6%; that for `CN1CCN(C(=O)CN(c2cccc(Cl)c2)S(=O)(=O)c2ccccc2)CC1` was 5.16%; that for `O=C1C2CC=C(Cl)CC2C(=O)N1c1ncn[nH]1` (centres unmarked) was 21.3%.
The value for `Cc1ccc(S(=O)(=O)NCCCCCC(=O)NC(C)(C)CO)cc1` was 13.6%; that for `CCOC(=O)Nc1ccc2c(c1)N(C(=O)OC)c1ccccc1CC2` was 6.09%; that for `O=C(CC1NCCNC1=O)NC1Cc2ccccc2C1` (centres unmarked) was 9.18%.
Take `COC(=O)c1ccc(NC(C)=O)o1`: the “hERG current change (%, negative = inhibition) at 1uM” value worked out at 4.12%.
As for `Cc1ccc(NC(=O)CC2Oc3ccccc3NC2=O)c(C)c1` (centres unmarked), the “hERG current change (%, negative = inhibition) at 1uM” value is 11.3%.
As to `COc1ccc(C(c2nnnn2C(C)(C)C)N2CCN(C)CC2)cc1OC` (centres unmarked), the “hERG current change (%, negative = inhibition) at 1uM” value stood at 5.69%.
The value for `O=C(N/N=C/c1cccs1)c1n[nH]c2c1CCCC2` was 20%; that for `O=C(/C=C/c1ccccc1Cl)c1ccccc(=O)c1O` was 12.5%.
As for `Cc1cc(-c2ccccc2)c2c3c(cn2n1)c(=O)n(C)c(=O)n3C`, the “hERG current change (%, negative = inhibition) at 1uM” value is on record as 8.33%.
As for `COCc1cc(C)nc(OCC(=O)N/N=C\c2cc(C)n(-c3cccc(C(F)(F)F)c3)c2C)c1C#N`, the “hERG current change (%, negative = inhibition) at 1uM” value was 9.35%.
The value for `Cc1ccc(CNC(=O)c2cc(S(=O)(=O)N3CCOCC3)cn2C)cc1` was 1.03%; that for `CCOC(=O)[C@H]1[C@H]2COc3ccc(Cl)cc3[C@@H]2N2C(=O)c3cc(C)ccc3NC(=O)[C@@]12C` was 9.03%; that for `O=C(c1ccco1)N1CCN(C(=S)Nc2ccc(F)cc2)CC1` was 9.43%.
The value for `CC1CCCN(S(=O)(=O)c2ccc3c(c2)n(C)c(=O)c(=O)n3C)C1` (centres unmarked) was 9.16%; that for `O=C(Nc1cccc(C(=O)N2CCN(c3cccc(Cl)c3)CC2)c1)c1ccccc1` was -2.12%.
